Target: T1, cysteine desulfurase IscS (E. coli), P0A6B7
T1 chain: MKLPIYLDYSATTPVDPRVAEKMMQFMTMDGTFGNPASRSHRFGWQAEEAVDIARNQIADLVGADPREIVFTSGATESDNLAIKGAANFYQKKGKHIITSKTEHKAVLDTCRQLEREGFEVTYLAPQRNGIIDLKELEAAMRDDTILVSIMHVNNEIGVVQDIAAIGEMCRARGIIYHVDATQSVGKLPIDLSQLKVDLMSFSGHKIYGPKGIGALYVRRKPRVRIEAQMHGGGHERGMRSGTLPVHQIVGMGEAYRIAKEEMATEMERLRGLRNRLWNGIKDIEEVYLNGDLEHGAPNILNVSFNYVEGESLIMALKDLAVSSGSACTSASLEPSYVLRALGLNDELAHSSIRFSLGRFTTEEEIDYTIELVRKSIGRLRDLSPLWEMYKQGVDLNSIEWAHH
Test: native MS; ESI-MS under non-denaturing conditions; IscS 3 μM in 250 mM ammonium acetate pH 8, IscX at 0-16 IscX/IscS molar ratios, 5 min at room temperature; sequential binding model (DynaFit)
Conditions: remark: other sources report otherwise

stoichiometry N: 2
B1: cysteine desulfurase IscS, P0A6B7 1-404 (enzyme)
chain: T1 chain

From publication PMC5801593
